Experimental data taken from patent US20120201826A1 (NOV IMMUNE S A, published 2012).

B1: A9 scFv (scFv)
chain: [omitted - about 100 residues]DLGYCTNGVCWGIDYWGQGTMVTVSSNFMLTQPHSVSESPGKTVTISCTRSSGSIADNYVQWYQQRPGSAPTTIIYDDDQRLSGVPDRFSGSIDTSSNSASLSISGLRTEDEADYYCQSYDDSNDVFGGGTKLTVL
B2: C10 scFv (scFv)
chain: [omitted - about 100 residues]VRGSSQYDFWSGSEFDYWGQGTMVTVSSSYVLTQPPSVSVAPGKTASISCGGDNIGGQNVHWYQQKPGQAPVLVIYYDTDRPSGIPERFSGSNSGNTATLSISRVEAADEADYYCQVWDVDSDHPWVFGGGTKLTVL

Molecular target: T1, recombinant human RANTES (huRANTES, Peprotech) (human, UniProt P13501 24-91)
T1 sequence: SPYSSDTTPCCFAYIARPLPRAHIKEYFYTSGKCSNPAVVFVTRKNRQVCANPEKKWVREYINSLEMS
Test: cell-based or functional assay

Binder | Chemotaxis IC50 (nM); L1.2 cells expressing hCCR5, 1 nM huRANTES; scFv format [nM]
B1 | 72
B2 | 41
